Values joined by “and” are separate entries in the source; they are usually repeats but may differ in a detail not shown here. Equal values may be shown once. The whole screen tested about 48,000 compounds, of which about 1,200 (2.5%) were called active. About 2% were inconclusive and are not listed.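 Rule for the calls: active = activation of at least 60% and not above a set upper limit (about 1 call in 100 departs from these limits); inconclusive = activation of 40% to 60%, or above that upper limit; inactive = activation under 40%.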 The list shows a part of the results.
Target: Probable G-protein coupled receptor 32 (Homo sapiens) (UniProt O75388)
UniProt O75388, sequence (O75388 whole entry, looked up): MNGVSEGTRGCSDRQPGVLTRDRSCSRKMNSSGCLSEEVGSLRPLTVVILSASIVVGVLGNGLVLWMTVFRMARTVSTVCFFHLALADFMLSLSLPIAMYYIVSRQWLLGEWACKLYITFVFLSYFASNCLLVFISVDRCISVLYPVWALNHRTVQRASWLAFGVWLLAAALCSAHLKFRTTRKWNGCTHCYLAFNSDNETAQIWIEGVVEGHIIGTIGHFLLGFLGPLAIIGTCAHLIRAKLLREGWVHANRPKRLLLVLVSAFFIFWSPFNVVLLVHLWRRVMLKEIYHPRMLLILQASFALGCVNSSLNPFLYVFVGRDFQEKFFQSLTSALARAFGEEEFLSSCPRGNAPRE
Experiment: qHTS for Agonists of Human Resolvin D1 Receptor DRV1; note: 0% is about no effect
Conditions: CHO-K1 GPR32 beta-arrestin PathHunter luminescence, 90 min; at 76.9 µM; hits give high values; zero percent set by DMSO-only wells
How it was run: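 Beta-arrestin recruitment read-out: luminescence from complemented beta-Gal in CHO-K1 GPR32 PathHunter cells, measured 1 h after detection reagent at ambient temperature following 90 min compound exposure at 37 °C; DMSO served as basal (EC0) control.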

activation, active:
Cc1ccc(-n2ccnc(NCCc3ccc(S(N)(=O)=O)cc3)c2=O)cc1C 95.2%, CCOc1ccc(NC(=O)Nc2ccc3snnc3c2)cc1 86.9%, COc1ccccc1CNC(=O)Cn1c(-c2cccs2)cc2cc(F)ccc21 103%

activation, inactive:
CCN(CC)CCNC(=O)c1cc(Cl)c(N)cc1OC -16.1% and -1.05%, COc1ccc(CNC(=O)Cn2ncn3nc(-c4cccs4)cc3c2=O)cc1 -2.82%, Cc1ccc(-c2nc(S(=O)(=O)c3ccc(C)cc3)c(N3CCN(c4ccccc4)CC3)o2)cc1 -26.4%, Cc1ccc(C)c(N2CCN(CCCNC(=O)Cn3ncc4c([nH]c5ccccc54)c3=O)CC2)c1 9.75%, CCc1ccc(CNC(=O)c2ccc3nc(C(C)C)oc3c2)cc1 -21.4%, CC(=O)N1CCC2(CC1)OC(=O)C(C)=C2C(=O)NCc1ccc(Cl)cc1 -3.53%, Cc1nn(-c2nc(-c3ccc(F)cc3)cc(C(F)(F)F)n2)c(C)c1Cl -18.8%, CC1=NN(c2ccccc2)C(=O)C1 49.3%, O=C(Nc1ccc2oc(-c3cccnc3)nc2c1)c1ccc(-c2ccccc2)o1 -0.531%, COc1ccc(OC(C)c2nc3ccccc3[nH]2)cc1 (stereo not given) -4.9%, CCCc1ccc(OCC(=O)N2CCN(C(=O)COc3ccc(CCC)cc3OC)CC2)c(OC)c1 -5.16%, CCc1ccc(NC(=O)C(=O)NCC(c2cccnc2)N2CCN(C)CC2)cc1 (stereo not given) 3.34%, COc1cc(NC(=O)C(CC(C)C)NS(=O)(=O)c2ccc3c(c2)oc(=O)n3C)c(C(=O)O)cc1OC (stereo not given) 10%, CCOC(=O)c1ccc(NC(=O)c2csc3c2CCCCC3)cc1 7.98%, CCOc1ccc(NC(=O)Cn2cc(C(=O)c3ccc(C)c(C)c3)c(=O)c3cc(OC)c(OC)cc32)cc1 2.44%, COC(=O)c1ccc(Cl)cc1NC(=O)N(C)CCc1c(C)nn(C)c1C -0.905%, CCOc1ccc(NC(=O)C(=O)NCCc2csc3nc(-c4ccccc4F)nn23)cc1 14.5%, Cc1ccc(CN2CCN(C3CCN(S(=O)(=O)c4ccc(C)cc4)CC3)C(=O)C2=O)cc1 -10.5%, O=c1cc(-c2ccc(F)cc2)nc(SCc2nc(-c3ccccc3Cl)no2)[nH]1 -10.5%, CCC1CCCCN1C(=O)CSc1nc2c([nH]c3ccccc32)c(=O)n1-c1cccc(OC)c1 (stereo not given) -2.74%, Cc1oc(-c2cccc(Cl)c2)nc1CSc1nc2ncccc2[nH]1 -2.72%, COc1ccc(CCn2c3c(c(=O)[nH]c2=O)C(NC(=O)c2ccccc2OC)(C(F)(F)F)C(=O)N3)cc1OC (stereo not given) 19.9%, COc1cc(C(=O)Nc2ccc(NC(=O)c3ccc(Br)cc3)cc2)cc(OC)c1OC 38%, Cc1cccc(N2CCN(C(=O)c3cc4c(=O)n(C)c5ccccc5c4s3)CC2)c1C 44.5%, O=C(O)c1ccc2nc(-c3cc4cc(F)ccc4oc3=O)[nH]c2c1 11.6%, O=C(COc1ccccc1Cl)Nc1ccc(Cl)c(-c2nc3ccccc3o2)c1 -16.4%, CCOc1ccc(-c2cc(NC(=O)c3ccc(C)cc3)c(C(=O)OC)s2)cc1 3.46%, Cc1cc(C)cc(-n2c(SCC(=O)NCC3CCCO3)nc3c([nH]c4ccccc43)c2=O)c1 (stereo not given) -15.9%, COc1ccc2c(c1)-c1nc(NC(=O)c3ccc(C)cc3)sc1CC2 -22.9%, Cn1cnc2c1c(=O)[nH]c(=O)n2C -11.1% and -1.12%, CCCC(=O)C1=C(c2ccc(C)c(C)c2)N(C(=O)CCC)n2c(CC)nnc2S1 -59.3%, COc1ccc(-c2noc(-c3ccc(NCCc4ccccc4)c([N+](=O)[O-])c3)n2)cc1OC -1.25%, N#C/C(=C\c1c[nH]c2ccccc12)C(=O)c1ccc(O)c(O)c1 -5.74%, CC(C)c1ccc(NS(=O)(=O)c2ccc3[nH]cc(C(=O)N4CCCC4)c(=O)c3c2)cc1 4.24%, CCn1ccc2cc(S(=O)(=O)N3CCCN(C(=O)Nc4cc(Cl)ccc4C)CC3)ccc21 33.7%, COc1ccc(OC)c(CNC(=O)CCCn2nc(C)c3c(C)n(-c4ccc(C)cc4)nc3c2=O)c1 -5.37%, O=C(Cn1ncc2c3ccccc3n(Cc3ccccc3)c2c1=O)Nc1ccccc1C(F)(F)F 9.56%, COc1cccc(CNC(=O)Cc2c(C)c3c(cc(C)c4c(C)coc43)oc2=O)c1 -4.62%, Cc1ccc(C)c(N2CCN(C(=O)c3ccc4c(c3)c(C)c(C)n4C)CC2)c1 -29.7%, COc1ccc(Nc2nnc(-c3ccc(C)c(S(=O)(=O)N4CCN(C)CC4)c3)c3ccccc23)cc1 -0.599%, Cc1nc2sccn2c(=O)c1S(=O)(=O)NCc1ccccc1 4.79%, COC(=O)c1ccc(OC)c(CN2CCCN(Cc3ccc(C)cc3)S2(=O)=O)c1 -9.14%, COc1cc2c(cc1OC)C(COc1ccc3c(C)cc(=O)oc3c1)N(C(=O)c1ccc(C)c(C)c1)CC2 (stereo not given) -1.47%, COc1ccc(Cl)cc1C(=O)NCC(c1ccc(N(C)C)cc1)N1CCOCC1 (stereo not given) -13.6%, Cc1oc2c(c1C(=O)Nc1ccc(Cl)cc1F)C1=NCCN1C=N2 6.48%, Cc1cccc(C)c1OCC(=O)N(Cc1ccc(Cl)cc1)CC1CCCO1 (stereo not given) -18.8%, CCCN(Cc1cccs1)C(=O)Nc1ccccc1C -15.9%, CC1CCCN(c2csc3ccccc3c2=O)C1 (stereo not given) -24.2%, CC(C)c1nn2c(=O)cc(COC(=O)c3ccccc3NC(=O)c3cccs3)nc2s1 -4.96%, Cn1c(=O)c2c(nc(NCCc3ccccc3)n2Cc2ccc(Cl)c(Cl)c2)n(C)c1=O 1.33%, O=C(O)CCNC(=O)c1ccccc1 -5.58%, CCOc1ccc(N(Cc2cc3cc(C)ccc3[nH]c2=O)C(=O)c2cccc(Cl)c2)cc1 -8.79%, COc1ccc(S(=O)(=O)NCCc2cn3ccsc3n2)cc1OC -2.25%, O=C(N[C@H](CO)[C@H](O)c1ccc([N+](=O)[O-])cc1)C(Cl)Cl -33.7%, CCOC(=O)C1CCN(CCC(=O)Nc2ccccc2Cl)CC1 1.55%, O=C(CCS(=O)(=O)c1cc2c3c(c1)CCN3C(=O)CC2)NCc1ccc(Cl)cc1 -10.2%, COc1ccc(/C=C/c2nc(C#N)c(NC3CCCCC3)o2)cc1OC -17.5%, Cc1ccc(CNC(=O)CCc2c(C)nn(-c3ccc(N4CCCC4)nn3)c2C)cc1 -9.65%, COC(=O)CSc1ccc2nnc(CCNS(=O)(=O)c3ccc(C)cc3)n2n1 -9.86%, CCOC(=O)C1=C(CN2CCN(c3ccccc3F)CC2)NC(=O)NC1c1ccc(OC)cc1 (stereo not given) -4.67%, CCOc1ccccc1NC(=O)Cn1nc2c3cc(F)ccc3n(Cc3cccc(C)c3)cc-2c1=O -7.1%, COc1ccc(CCNC(=O)c2cc(-c3ccc(Cl)cc3)on2)cc1OC 7.21%, COc1cccc(NC(=O)CCc2nc(-c3cc(OC)c(OC)c(OC)c3)no2)c1 15.4%, COc1cc2c(C(=O)N3CCN(c4ccc(C)cc4)C(C)C3)cn(CC(C)C)c(=O)c2cc1OC (stereo not given) 19.6%, Cc1nc2ccccn2c(=O)c1NC(=O)c1ccccc1Cl -12.8%, Cc1ccc(C)c(NC(=O)C(=O)NCCc2csc(-c3cccc(F)c3)n2)c1 -2.03%, Cn1c(=O)cc(SCC(=O)Nc2cccc(C#N)c2)c2ccc(Cl)cc21 -1.69%, CCOC(=O)c1ccc(NC(=O)c2cc3c(=O)n(C)c4ccccc4c3n2C)cc1 -3.11%, COC(=O)C1=C(C)NC(C)=C(C(=O)O[C@@H]2CCCN(Cc3ccccc3)C2)[C@@H]1c1cccc([N+](=O)[O-])c1 -5.03%, COc1ccc(N2CCN(C(=O)Cc3noc4ccc(C)cc34)CC2)cc1 -28.6%, Cc1ccc(CN2CCc3nc(N4CCN(C)CC4)ncc3C2)cc1 -32.5%, CCc1ccc(NC(=O)Cn2ccn(-c3cccc(Cl)c3)c(=O)c2=O)cc1 -4.95%, COc1ccc(C(=O)N2CCC(c3ccncc3)CC2)cc1OC 14%, CCOc1ccc(-c2ccc(NS(=O)(=O)c3cc(C)c(C)cc3C)cc2)nn1 -12.7%, Cc1ccc2c(c1)c1c3n2CCNC3CCC1 (stereo not given) 4.07%, Cc1ccccc1CN1CCc2nc(Nc3ccc4c(c3)OCCO4)ncc2C1 -4.88%, CCOc1ccc(CCNC(=O)c2ccc(CS(=O)(=O)Cc3ccccc3Cl)o2)cc1OCC -7.47%, CCN(C(=O)COc1cc(=O)n(C)c2ccccc12)c1cccc(C(F)(F)F)c1 16.1%, CC(NC(=O)CCn1c(=O)c2cccn2c2ccc(F)cc21)c1ccccc1 (stereo not given) -17.6%, O=C(c1cc2c(=O)[nH]c3ccccc3c2s1)N1CCN(c2ccc(F)cc2)CC1 1.97%, CCOc1ccc(C(=O)Nc2ccc(-c3nc4cc(CC)ccc4o3)cc2)cc1 -1.85%, COc1ccc(NC(=O)C(=O)NCCc2csc(-c3ccc(Cl)cc3)n2)cc1 1.29%

— PubChem BioAssay AID1346428 (National Center for Advancing Translational Sciences (NCATS), 2018)
